Laboratory results reported in PubChem BioAssay AID651820 (National Center for Advancing Translational Sciences (NCATS), 2012).
Several values for one entry are separate records, joined by “and”; a condition that tells them apart may be missing. Equal entries are not always repeated. Hit rate of the full screen: of about 340,000 compounds, about 12,000 (3.5%) were called active. This list was built around the results that the source calls inconclusive (neither active nor inactive); the mix of calls is not that of the screen. The call rests on the fitted dose curve; in most records, active means well fitted inhibition curve with a large enough effect; inconclusive means small, poorly fitted or top-dose-only effect, or another doubt; inactive means no such curve, though single readings can be large or run the other way. A potency beside an inconclusive call is a rough fit, not a confirmed value.

assay: qHTS Assay for Inhibitors of Hepatitis C Virus (HCV); details: Huh7.5.1 HCVcc-Cre (HCVcc is cell-culture hepatitis C virus) infection, luciferase reporter, 44 h; activity change, negative = inhibition: at 41.8 µM (top of the series) unless noted
Procedure, shortened: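 Compounds are dispensed onto cells plated 4 h earlier at 1,000 per well, with HCVcc-Cre virus (about 0.5 moi) added next. Following 44 h of culture, luminescent signal is measured for 15 sec after 15 min with substrate at room temperature.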
On the % scale 0 is the no-effect control and ±100 the full control effect; potency means the concentration at half of the fitted maximal effect; tags describe the fitted curve by direction and shape.

SMILES | Potency | activity change, negative = inhibition
O=C(N/N=C/c1c(O)n(Cc2ccc(F)cc2)c(=O)[nH]c1=O)c1ccccc1 | inactive | –
CN(N)c1nc2ccccc2nc1C(F)(F)F | inactive | –
CC(C)(C)c1ccc(NC(=S)NCc2cccs2)cc1 | inconclusive: 31.6 µM [inhibitor, single point] | –
Cc1cccc(C(=O)Nc2ccccc2C(=O)NCc2cccnc2)c1 | inconclusive: 31.6 µM [inhibitor, single point] | –
COc1ccc(C2(c3ccc(OC)cc3)NC(=O)N(CC(=O)NC3(C#N)CCCCC3)C2=O)cc1 | inconclusive: 3.16 µM [inhibitor, single point] | –
Cc1ccc(C)c(NS(=O)(=O)c2ccc(OCC(=O)NCC3CCCO3)cc2)c1 (stereo not given) | inactive | –
Clc1ccc2[nH]c3c(N4CCC5(CC4)OCCO5)ncnc3c2c1 | active: 12.6 µM | –
Cc1cc(=O)oc2cc(O[C@@H]3O[C@H](CO)[C@@H](O)[C@H](O)[C@H]3O)ccc12 | inactive | –
COc1ccc(Cc2nc(-c3ccc(Br)cc3)no2)cc1 | inconclusive: 17.8 µM [inhibitor, partial curve, poor fit] | –
Cc1ccc(NC(=O)CSc2nc(N)cc(=O)[nH]2)cc1S(=O)(=O)N1CCCCCC1 | inconclusive: 14.1 µM [inhibitor, single point] | –
Cn1cccc1C1CCCN1CC(=O)Nc1ccc(C#N)c(Cl)c1 (stereo not given) | inconclusive: 31.6 µM [inhibitor, single point] | –
COc1ccc(N(C)C(=O)c2cc3c(s2)-c2ccccc2S(=O)(=O)C3)cc1 | inconclusive: 31.6 µM [inhibitor, single point] | –
Cc1cccnc1N(C(=O)Nc1ccccc1)C1=NCC(C)(C)S1 | inactive | –
COc1ccccc1CNC(=O)[C@H](C)N1C(=O)N2CCc3c([nH]c4ccccc34)[C@@]2(C)C1=O | inconclusive: 31.6 µM [inhibitor, partial curve, poor fit] | –
COC(=O)[C@@H](NC(=O)c1ccc(OC2CCN(Cc3ccccn3)CC2)cc1)C(C)C | inactive | –
CSc1ccccc1OC1CCN(Cc2ccccc2)CC1 | inconclusive: 31.6 µM [inhibitor, single point] | –
N#Cc1nc(-c2ccco2)oc1N1CCCC1 | inconclusive: 22.4 µM [inhibitor, single point] | –
COc1ccccc1NC(=O)COc1ccc(/C=N/NC(=O)CSCc2ccc(Cl)cc2)cc1 | inconclusive: 31.6 µM [inhibitor, single point] | –
CC(C)SCC(=O)Nc1ncc2c(n1)-c1ccccc1CC2 | inconclusive: 3.16 µM [inhibitor, single point] | –
CCCCOc1ccc(CSC(=N)N)cc1Cl | inconclusive: 31.6 µM [inhibitor, single point] | –
Nc1ccccc1SCc1c(Cl)cccc1Cl | inactive | –
Cc1onc(C(=O)Nc2cccnc2Cl)c1[N+](=O)[O-] | inactive | –
COC(=O)c1ccccc1NC(=O)c1cc(OC)cc(OC)c1 | inconclusive: 11.2 µM [inhibitor, partial curve] | –
Cc1cccc(OCC(=O)N2CCC3(CC2)CC(=O)c2ccccc2O3)c1 | – | inconclusive: -33.1% [inhibitor]
COc1ccc(OC)c(NC(=O)COC(=O)/C=C/c2ccco2)c1 | inconclusive: 3.16 µM [inhibitor, single point] | –

SMILES | Potency | activity change, negative = inhibition
COCC(C)n1c(C)cc(C(=O)COc2ccc(N(C)S(=O)(=O)c3ccc(NC(C)=O)cc3)cc2)c1C (stereo not given) | inconclusive: 12.6 µM [inhibitor, single point] | –
NC(=S)NN=C1CCCCC12CCCC2 | inactive | –
Cc1ccc(-n2nnnc2SCn2nnc3ccccc3c2=O)c(C)c1 | inconclusive: 3.98 µM [inhibitor, full curve] | –
CN(CC(=O)Nc1ccc(Cl)c(C(F)(F)F)c1)C(=O)c1ccc(N2CCOCC2)c([N+](=O)[O-])c1 | inconclusive: 5.01 µM [inhibitor, partial curve] | –
COc1ccccc1NC(=O)CCc1nc2ccccc2s1 | inactive | –
O=C(CSc1nc2c(sc3ccccc32)c(=O)n1CCc1ccccc1)NCc1ccco1 | inactive | –
COc1ccc(S(=O)(=O)N2CCC(C(=O)NCC3CCCO3)CC2)cc1OC (stereo not given) | inactive | –
CCOc1ccccc1Oc1c(C)oc2c(CN3CCN(CCO)CC3)c(O)ccc2c1=O | inactive | –
CCOc1cc2[nH]c(=O)n(CCCCCC(=O)NC3CCCC3)c(=O)c2cc1OCC | inactive | –
Cc1cccc(NC(=O)C2CC(=O)OC23CCCCC3)c1 (stereo not given) | inactive | –
CNc1ccc(Br)cc(C(=O)/C=C/c2cccc(Cl)c2Cl)c1=O | inconclusive: 22.4 µM [inhibitor, single point] | –
COc1ccc(-n2nc(C(=O)NCc3ccco3)c3c4ccccc4n(C)c3c2=O)cc1Cl | inconclusive: 10 µM [inhibitor, partial curve] and inconclusive: 3.16 µM [inhibitor, full curve] | –
CSc1nc2ccccc2n1CC(=O)Nc1c(C)n(C)n(-c2ccccc2)c1=O | inactive | –
O=C(NCCc1nnc2ccc(N3CCCC3)nn12)c1ccccc1 | inactive | –
COc1cc2c(C#CCCCO)c(-c3ccsc3)oc(=O)c2cc1OC | active: 3.16 µM | –
COc1ccc(-c2cn(Cc3ccc4c(c3)C(=O)c3ccccc3C4=O)nn2)cc1 | inactive | –
COc1ccc(-n2c(=O)c3c4c(sc3n(CC(=O)NCc3ccco3)c2=O)CCC4)c(OC)c1 | active: 12.6 µM | –
Cc1cc(N2CCN(S(=O)(=O)c3ccccc3)CC2)nc2c(C)cccc12 | inconclusive: 20 µM [inhibitor, single point] | –
Cn1c(=O)c2cc(S(=O)(=O)Nc3cccc(F)c3)ccc2n(C)c1=O | inconclusive: 5.62 µM [inhibitor, single point] | –
S=C1NC2(CCCCCC2)N=C1c1ccccc1 | inconclusive: 31.6 µM [inhibitor, single point] | –
CCc1ccccc1Nc1nc(N)nc(COC(=O)CCC(=O)c2ccc(F)cc2)n1 | inactive | –
CN(C)CCCN(C(=O)c1ccc2ccccc2c1)c1nc2cc3c(cc2s1)OCO3 | inconclusive: 5.62 µM [inhibitor, single point] | –
Cc1cccn2c(=O)c3cc(C(=O)NCc4ccco4)c(=N)n(C4CCCCC4)c3nc12 | inconclusive: 31.6 µM [inhibitor, single point] | –
COc1ccc(CCn2c(-c3ccco3)nc3ccccc3c2=O)cc1OC | inconclusive: 12.6 µM [inhibitor, single point] | –
OCCCNc1nccc(-c2cc(Nc3cccc(Cl)c3)ncn2)n1 | active: 2.82 µM | –

SMILES | Potency | activity change, negative = inhibition
CCOc1ccccc1NC(=O)C(OC(=O)c1ccc(NC(=O)CC#N)cc1)c1ccccc1 (stereo not given) | inconclusive: 31.6 µM [inhibitor, single point] | –
CCOC(=O)Cc1csc(NC(=S)NC(=O)c2cccc([N+](=O)[O-])c2)n1 | inactive | –
Cc1cc(N=Nc2ccc(Cl)cc2)cc(CN2CCCC2)c1O | inconclusive: 8.91 µM [inhibitor, partial curve] | –
CC(=O)Nc1nc2ccccc2n1Cc1ccccc1 | inactive | –
CCCCCCCn1ccc(=N)cc1 | active: 0.562 µM | –
CC(C)C[C@@H](CO)N(Cc1ccccc1)S(=O)(=O)N(Cc1ccccc1)[C@H](CO)CC(C)C | inconclusive: 31.6 µM [inhibitor, single point] | –
O=C(NCC1CCCO1)c1ccc2c(c1)N(Cc1ccccc1)CCS2 (stereo not given) | inactive | –
CN(C)S(=O)(=O)c1cccc(C(=O)N2CCc3ccccc32)c1 | inactive | –
Clc1ccc(C2NCCc3sccc32)cc1 (stereo not given) | inactive | –
O=C(Cc1ccccc1)N1CCNCC1 | inactive | –
O=C(Cc1cccs1)N[C@@H]1c2ccccc2CC[C@H]1OCc1ccccc1 | inactive | –
CCCCS(=O)c1c(O)c2ccccc2[nH]c1=O (stereo not given) | inactive | –
Cc1cc(/C=C(\C#N)C(=O)NCCc2c[nH]c3ccccc23)c(C)n1C | inactive | –
Cc1ccc(-c2ccc(CCC(=O)O)n2NC(N)=S)cc1 | inactive | –
Cc1cc2c(c(C)c1CCO[C@@H]1O[C@H](CO)[C@@H](O)[C@H](O)[C@H]1O)C(=O)[C@@H](C)[C@@H]2O | inconclusive: 31.6 µM [inhibitor, single point] | –
CCOC(=O)C1(C(F)(F)F)N=C(C(F)(F)F)Nc2cc(C)c(C)cc21 (stereo not given) | inactive | –
COc1ccc2sc(-c3ccc(S(C)(=O)=O)cc3)c(C#Cc3cncn3C)c2c1 | inconclusive: 3.98 µM [inhibitor, full curve] | –
OCCCCNCc1ccc(OCc2ccccc2)cc1 | inconclusive: 31.6 µM [inhibitor, single point] | –
CCOC(=O)c1c(NC(=O)CN2CCCCC2)sc2c1CCCC2O (stereo not given) | inconclusive: 11.2 µM [inhibitor, partial curve] | –
COC(=O)C1=C(N)OC2=C(C(=O)CCC2)C1c1ccc2c(c1)OCO2 (stereo not given) | inactive | –
CN1CCN(NC(=O)c2cccc(C(F)(F)F)c2)CC1 | inconclusive: 0.562 µM [inhibitor, full curve, poor fit] | –
COc1cc(CN(CCc2c(C)[nH]c3ccc(C)cc23)C(=S)NC(C)(C)C)cc(OC)c1OC | inconclusive: 10 µM [inhibitor, partial curve] | –
CC(C)(Cc1cc(CC(C)(C)C(=O)O)cc(C(C)(C)C)c1)C(=O)O | inactive | –
CN1CCN(c2ccc(NC(=S)NC(=O)c3cccc4c(Br)cccc34)cc2)CC1 | inconclusive: 3.16 µM [inhibitor, partial curve] | –
O=C(Nc1ccc(S(=O)(=O)N2CCOCC2)cc1)c1ccc([N+](=O)[O-])cc1Cl | inconclusive: 10 µM [inhibitor, single point] | –
